Data as given in the supplement of paper PMC8728848.
This is one part of the list.

Columns and labels:
Experiment in all cases: glycan array binding signal (z-score within array); higher = stronger binding
Details in all cases: glycan notation: IUPAC condensed, linker removed
[1] = molecular target: Man(a1-2)Man(a1-3)[Man(a1-2)Man(a1-6)]Man
Procedure, shortened: (§1)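 The Consortium for Functional Glycomics database supplied 3228 glycan arrays, of which those lacking an available protein sequence were dropped. The binding signal, a within-array Z-score, was averaged across arrays of the same protein sequence and across linkers. Negative scores can be read as non-binding.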

[2] = molecular target: Man(a1-2)Man(a1-3)[Man(a1-2)Man(a1-6)]Man(a1-6)[Man(a1-2)Man(a1-2)Man(a1-3)]Man
Procedure, shortened: as §1

[3] = molecular target: Man(a1-2)Man(a1-3)[Man(a1-2)Man(a1-6)]Man(a1-6)[Man(a1-2)Man(a1-2)Man(a1-3)]Man(b1-4)GlcNAc(b1-4)GlcNAc
Procedure, shortened: as §1

[4] = molecular target: Man(a1-2)Man(a1-3)[Man(a1-6)]Man(a1-6)[Man(a1-2)Man(a1-3)]Man(b1-4)GlcNAc(b1-4)GlcNAc
Procedure, shortened: as §1

[5] = molecular target: Man(a1-2)Man(a1-6)[Man(a1-3)]Man(a1-6)[Man(a1-2)Man(a1-2)Man(a1-3)]Man
Procedure, shortened: as §1

[6] = molecular target: Man(a1-2)Man(a1-6)[Man(a1-3)]Man(a1-6)[Man(a1-2)Man(a1-2)Man(a1-3)]Man(b1-4)GlcNAc(b1-4)GlcNAc
Procedure, shortened: as §1

Man(a1-3)[Man(a1-6)]Man = molecular target: Man(a1-3)[Man(a1-6)]Man
Procedure, shortened: as §1

[7] = molecular target: Man(a1-3)[Man(a1-6)]Man(a1-6)[Man(a1-2)Man(a1-3)]Man(b1-4)GlcNAc(b1-4)GlcNAc
Procedure, shortened: as §1

[8] = molecular target: Man(a1-3)[Man(a1-6)]Man(a1-6)[Man(a1-3)]Man
Procedure, shortened: as §1

[9] = molecular target: Man(a1-3)[Man(a1-6)]Man(a1-6)[Man(a1-3)]Man(b1-4)GlcNAc(b1-4)GlcNAc
Procedure, shortened: as §1

[10] = molecular target: Man(a1-3)[Man(a1-6)]Man(b1-4)GlcNAc(b1-4)GlcNAc
Procedure, shortened: as §1

[11] = molecular target: Man(a1-3)[Man(a1-6)]Man(b1-4)GlcNAc(b1-4)[Fuc(a1-6)]GlcNAc
Procedure, shortened: as §1

Man(a1-6)Man = molecular target: Man(a1-6)Man
Procedure, shortened: as §1

Man(b1-4)GlcNAc = molecular target: Man(b1-4)GlcNAc
Procedure, shortened: as §1

MurNAc(b1-4)GlcNAc = molecular target: MurNAc(b1-4)GlcNAc
Procedure, shortened: as §1

Neu5Ac(a2-3)Gal = molecular target: Neu5Ac(a2-3)Gal
Procedure, shortened: as §1

[12] = molecular target: Neu5Ac(a2-3)Gal(b1-3)GalNAc
Procedure, shortened: as §1

[13] = molecular target: Neu5Ac(a2-3)Gal(b1-3)GalNAc(b1-3)Gal(a1-4)Gal(b1-4)Glc
Procedure, shortened: as §1

[14] = molecular target: Neu5Ac(a2-3)Gal(b1-3)GalNAc(b1-4)[Neu5Ac(a2-3)]Gal(b1-4)Glc
Procedure, shortened: as §1

[15] = molecular target: Neu5Ac(a2-3)Gal(b1-3)GalNAc(b1-4)[Neu5Ac(a2-8)Neu5Ac(a2-3)]Gal(b1-4)Glc
Procedure, shortened: as §1

[16] = molecular target: Neu5Ac(a2-3)Gal(b1-3)GalNAc6S
Procedure, shortened: as §1

[17] = molecular target: Neu5Ac(a2-3)Gal(b1-3)GlcNAc
Procedure, shortened: as §1

[18] = molecular target: Neu5Ac(a2-3)Gal(b1-3)GlcNAc(b1-2)Man
Procedure, shortened: as §1

[19] = molecular target: Neu5Ac(a2-3)Gal(b1-3)GlcNAc(b1-2)Man(a1-3)[GlcNAc(b1-4)][Neu5Ac(a2-3)Gal(b1-3)GlcNAc(b1-2)Man(a1-6)]Man(b1-4)GlcNAc(b1-4)GlcNAc
Procedure, shortened: as §1

[20] = molecular target: Neu5Ac(a2-3)Gal(b1-3)GlcNAc(b1-2)Man(a1-3)[Neu5Ac(a2-3)Gal(b1-3)GlcNAc(b1-2)Man(a1-6)]Man(b1-4)GlcNAc(b1-4)GlcNAc
Procedure, shortened: as §1

[21] = molecular target: Neu5Ac(a2-3)Gal(b1-3)GlcNAc(b1-3)Gal(b1-3)GlcNAc
Procedure, shortened: as §1

[22] = molecular target: Neu5Ac(a2-3)Gal(b1-3)GlcNAc(b1-3)Gal(b1-4)GlcNAc
Procedure, shortened: as §1

[23] = molecular target: Neu5Ac(a2-3)Gal(b1-3)GlcNAc(b1-3)GalNAc
Procedure, shortened: as §1

[24] = molecular target: Neu5Ac(a2-3)Gal(b1-3)GlcNAc(b1-4)Gal(b1-4)Glc
Procedure, shortened: as §1

[25] = molecular target: Neu5Ac(a2-3)Gal(b1-3)GlcNAc(b1-6)GalNAc
Procedure, shortened: as §1

[26] = molecular target: Neu5Ac(a2-3)Gal(b1-3)GlcNAc6S
Procedure, shortened: as §1

[27] = molecular target: Neu5Ac(a2-3)Gal(b1-3)[Fuc(a1-4)]GlcNAc
Procedure, shortened: as §1

[28] = molecular target: Neu5Ac(a2-3)Gal(b1-3)[Fuc(a1-4)]GlcNAc(b1-3)Gal(b1-3)[Fuc(a1-4)]GlcNAc
Procedure, shortened: as §1

[29] = molecular target: Neu5Ac(a2-3)Gal(b1-3)[Fuc(a1-4)]GlcNAc(b1-3)Gal(b1-4)[Fuc(a1-3)]GlcNAc
Procedure, shortened: as §1

[30] = molecular target: Neu5Ac(a2-3)Gal(b1-3)[GlcNAc(b1-6)]GalNAc
Procedure, shortened: as §1

[31] = molecular target: Neu5Ac(a2-3)Gal(b1-3)[Neu5Ac(a2-6)]GalNAc
Procedure, shortened: as §1

[32] = molecular target: Neu5Ac(a2-3)Gal(b1-3)[Neu5Ac(a2-6)]GlcNAc(b1-3)[Fuc(a1-3)[Gal(b1-4)]GlcNAc(b1-6)]Gal(b1-4)Glc
Procedure, shortened: as §1

[33] = molecular target: Neu5Ac(a2-3)Gal(b1-3)]Neu5Ac(a2-3)Gal(b1-4)]GlcNAc
Procedure, shortened: as §1

Neu5Ac(a2-3)Gal(b1-4)Glc = molecular target: Neu5Ac(a2-3)Gal(b1-4)Glc
Procedure, shortened: as §1

[34] = molecular target: Neu5Ac(a2-3)Gal(b1-4)GlcNAc
Procedure, shortened: as §1

[35] = molecular target: Neu5Ac(a2-3)Gal(b1-4)GlcNAc(b1-2)Man
Procedure, shortened: as §1

[36] = molecular target: Neu5Ac(a2-3)Gal(b1-4)GlcNAc(b1-2)Man(a1-3)[GlcNAc(b1-4)][Neu5Ac(a2-3)Gal(b1-4)GlcNAc(b1-2)Man(a1-6)]Man(b1-4)GlcNAc(b1-4)GlcNAc
Procedure, shortened: as §1

[37] = molecular target: Neu5Ac(a2-3)Gal(b1-4)GlcNAc(b1-2)Man(a1-3)[Neu5Ac(a2-3)Gal(b1-4)GlcNAc(b1-2)Man(a1-6)]Man(b1-4)GlcNAc(b1-4)GlcNAc
Procedure, shortened: as §1

[38] = molecular target: Neu5Ac(a2-3)Gal(b1-4)GlcNAc(b1-2)Man(a1-3)[Neu5Ac(a2-3)Gal(b1-4)GlcNAc(b1-2)Man(a1-6)]Man(b1-4)GlcNAc(b1-4)[Fuc(a1-6)]GlcNAc
Procedure, shortened: as §1

[39] = molecular target: Neu5Ac(a2-3)Gal(b1-4)GlcNAc(b1-2)Man(a1-3)[Neu5Ac(a2-6)Gal(b1-4)GlcNAc(b1-2)Man(a1-6)]Man(b1-4)GlcNAc(b1-4)GlcNAc
Procedure, shortened: as §1

B1: EPL1 (Trichoderma atroviride), A0PCX2 (protein)
chain: MQLSNLFKLALFTAAVSADTVSYDTGYDDASRSLTVVSCSDGTNGLITRYHWQTQGQIPRFPYIGGAQAVAGWNSPNCGTCWKLTYSGKTIYVLAIDHTAAGFNIGLDAMNALTNGNAVALGRVSATASQVAVSNCGL
- glycan array binding signal (z-score) [1]: 0.151
- glycan array binding signal (z-score) [2]: -0.315
- glycan array binding signal (z-score) [3]: -0.345
- glycan array binding signal (z-score) [4]: -0.48
- glycan array binding signal (z-score) [5]: -0.213
- glycan array binding signal (z-score) [6]: -0.097
- glycan array binding signal (z-score) (Man(a1-3)[Man(a1-6)]Man): -0.477
- glycan array binding signal (z-score) [7]: -0.286
- glycan array binding signal (z-score) [8]: -0.677
- glycan array binding signal (z-score) [9]: 0.034
- glycan array binding signal (z-score) [10]: -0.275
- glycan array binding signal (z-score) [11]: 0.224
- glycan array binding signal (z-score) (Man(a1-6)Man): 0.009
- glycan array binding signal (z-score) (Man(b1-4)GlcNAc): 0.021
- glycan array binding signal (z-score) (MurNAc(b1-4)GlcNAc): -0.51
- glycan array binding signal (z-score) (Neu5Ac(a2-3)Gal): -0.124
- glycan array binding signal (z-score) [12]: -0.296
- glycan array binding signal (z-score) [13]: -0.084
- glycan array binding signal (z-score) [14]: 0.173
- glycan array binding signal (z-score) [15]: 0.49
- glycan array binding signal (z-score) [16]: 0.354
- glycan array binding signal (z-score) [17]: 0.189
- glycan array binding signal (z-score) [18]: -0.068
- glycan array binding signal (z-score) [19]: -0.065
- glycan array binding signal (z-score) [20]: 0.58
- glycan array binding signal (z-score) [21]: -0.271
- glycan array binding signal (z-score) [22]: 0.055
- glycan array binding signal (z-score) [23]: -0.457
- glycan array binding signal (z-score) [24]: -0.475
- glycan array binding signal (z-score) [25]: 0.388
- glycan array binding signal (z-score) [26]: -0.116
- glycan array binding signal (z-score) [27]: -0.091
- glycan array binding signal (z-score) [28]: -0.35
- glycan array binding signal (z-score) [29]: -0.501
- glycan array binding signal (z-score) [30]: -0.167
- glycan array binding signal (z-score) [31]: 0.447
- glycan array binding signal (z-score) [32]: -0.501
- glycan array binding signal (z-score) [33]: -0.367
- glycan array binding signal (z-score) (Neu5Ac(a2-3)Gal(b1-4)Glc): -0.061
- glycan array binding signal (z-score) [34]: -0.399
- glycan array binding signal (z-score) [35]: 0.402
- glycan array binding signal (z-score) [36]: -0.469
- glycan array binding signal (z-score) [37]: -0.374
- glycan array binding signal (z-score) [38]: 0.589
- glycan array binding signal (z-score) [39]: -0.297
